In all, about 33,000 sequences were measured (“E-score (-0.5 to 0.5)”: median about -0.012, highest 2% from about 0.29 on). The list shows a part of the results.
target: T1, Ybr033w (UniProt P38073); assay: PBM E-score (8-mer binding enrichment) (E-score (-0.5 to 0.5)); higher = stronger / more preferred TF binding; most listed sequences are background and not binding sites; settings: protein concentration: 200 nM; construct: GST-full length
T1 sequence: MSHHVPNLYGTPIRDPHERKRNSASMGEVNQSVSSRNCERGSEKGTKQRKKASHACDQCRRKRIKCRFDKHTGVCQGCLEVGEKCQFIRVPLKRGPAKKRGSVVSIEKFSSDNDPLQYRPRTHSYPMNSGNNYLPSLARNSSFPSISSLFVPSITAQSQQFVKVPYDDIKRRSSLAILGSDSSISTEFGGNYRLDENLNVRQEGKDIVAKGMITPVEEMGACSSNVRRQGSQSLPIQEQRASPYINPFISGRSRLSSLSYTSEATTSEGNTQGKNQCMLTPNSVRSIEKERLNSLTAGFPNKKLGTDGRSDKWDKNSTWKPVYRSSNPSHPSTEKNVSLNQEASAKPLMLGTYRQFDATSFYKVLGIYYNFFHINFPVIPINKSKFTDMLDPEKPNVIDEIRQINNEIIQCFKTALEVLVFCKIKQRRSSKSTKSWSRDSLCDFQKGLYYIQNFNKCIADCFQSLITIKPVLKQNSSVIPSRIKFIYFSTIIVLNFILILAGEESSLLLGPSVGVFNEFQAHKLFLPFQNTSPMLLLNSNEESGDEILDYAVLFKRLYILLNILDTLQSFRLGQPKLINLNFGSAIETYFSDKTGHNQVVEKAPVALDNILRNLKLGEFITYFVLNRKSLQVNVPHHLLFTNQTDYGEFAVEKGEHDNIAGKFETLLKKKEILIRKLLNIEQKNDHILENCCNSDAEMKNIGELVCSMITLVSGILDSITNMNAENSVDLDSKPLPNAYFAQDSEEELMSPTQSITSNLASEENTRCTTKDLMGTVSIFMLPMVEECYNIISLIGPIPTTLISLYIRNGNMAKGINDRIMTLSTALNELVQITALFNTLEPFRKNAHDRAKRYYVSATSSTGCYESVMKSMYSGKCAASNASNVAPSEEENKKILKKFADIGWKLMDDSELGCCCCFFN
Procedure, shortened: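 E-scores (a modified Wilcoxon-Mann-Whitney statistic) were assigned by the Universal PBM Analysis Suite to every ungapped eight-base word pooled with its reverse complement. The input came from universal all-10-mer Agilent arrays made double-stranded by primer extension and probed with GST-tagged yeast transcription factors at about 100-200 nM. Fluorescent anti-GST detected bound protein, and masliner normalised the scans.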

| Sequence | PBM E-score |
| --- | --- |
| TCAGAAGA | -0.0313 |
| AGTCATAA | 0.152 |
| CTGGGAAA | 0.135 |
| AATCAGAC | 0.0659 |
| CAGAGCTG | -0.114 |
| TCATCTAA | 0.0895 |
| AGATGACA | -0.0646 |
| GGAGAAAA | 0.175 |
| TATCCGGA | 0.269 |
| CCACAACG | -0.14 |
| ATTCTTTA | 0.222 |
| GCCATGCA | -0.00628 |
| CAATCGTG | -0.12 |
| CCGGGGCG | -0.142 |
| CATCCACG | -0.0395 |
| GCCGTAAA | 0.17 |
| AAGGTCGA | -0.0242 |
| GGTAGTAA | -0.031 |
| GGTCGAAC | -0.0499 |
| GCGCGCTA | 0.143 |
| GTATCTCA | 0.239 |
| AGATTGCG | 0.0921 |
| CACCGTCA | -0.00093 |
| AATATATC | 0.281 |
| AGGAAAAT | 0.379 |

| Sequence | PBM E-score |
| --- | --- |
| ATTACCAC | 0.228 |
| AACTGACA | 0.0411 |
| GAAGCTTA | 0.0854 |
| GAGACGGC | -0.042 |
| CGGCACCA | -0.1 |
| CTATGTAC | 0.0927 |
| AACTAATC | 0.192 |
| GGATCAGA | -0.191 |
| AATACCAA | 0.195 |
| GATTAAGA | 0.213 |
| AAGCCATA | 0.0179 |
| ACGCTCCC | -0.124 |
| TCTTTTCA | 0.0439 |
| GAACGGTC | -0.157 |
| GACCACTA | -0.046 |
| AATAGACA | 0.00401 |
| AAATTGCG | 0.0741 |
| CTCTATGA | 0.122 |
| AGGAGAAA | 0.221 |
| GTGTACAA | 0.232 |
| GGCTTTAC | 0.0346 |
| ACCGGAGT | -0.111 |
| ATCTAGAT | -0.0597 |
| ACAAGTCC | 0.058 |
| AGGTTTGG | -0.0994 |

| Sequence | PBM E-score |
| --- | --- |
| CAGTGCCA | -0.25 |
| CTCTTAGC | -0.0614 |
| ATGAACTC | 0.0731 |
| ATCAGTCA | 0.00279 |
| GAATAACA | 0.367 |
| CGACATCA | 0.101 |
| AGCGGCGC | -0.27 |
| AGATAGTA | 0.194 |
| GGGAGCCA | -0.342 |
| GAAGGGTC | -0.246 |
| GCCCTTAA | -0.0102 |
| CATCACAA | 0.207 |
| TATCGCCA | -0.0288 |
| CCCGACGG | -0.164 |
| ATAAGTTC | 0.249 |
| ACAAGTCT | 0.061 |
| TATCGACA | -0.119 |
| GTGATCCA | -0.0579 |
| GAACTACA | 0.0742 |
| CACTCGTC | -0.0452 |
| AGACATAT | 0.224 |
| AAAGCCGG | -0.0185 |
| CTACTCAG | -0.0742 |
| CTAAGGGA | 0.0981 |
| TACGTGAA | -0.048 |

| Sequence | PBM E-score |
| --- | --- |
| AATGCCTG | -0.153 |
| AGCGGTCC | -0.0767 |
| CATGCCAC | -0.103 |
| AACAAGAG | 0.00138 |
| CTTTCACA | 0.11 |
| AAAATTAA | 0.308 |
| GCGGCCTA | -0.185 |
| AAAGAGCT | -0.151 |
| AGTTGAAT | 0.149 |
| CAGCTCGC | -0.00356 |
| CTGAAAGC | 0.0974 |
| ATGGACTG | -0.0798 |
| TCCACCAA | -0.00327 |
| AATTTCTC | 0.299 |
| AAGGGATA | 0.111 |
| AACCAAGA | 0.165 |
| CGACAACC | -0.179 |
| GCAAGCGA | -0.0415 |
| AGGACCGC | -0.146 |
| GAAATTTC | -0.0314 |
| GAGTACTA | 0.133 |
| CGACTACA | 0.0164 |
| AGCTATAG | -0.241 |
| GGGGGTAC | -0.254 |
| AGCAAAGA | 0.0215 |

| Sequence | PBM E-score |
| --- | --- |
| AGGAGACT | -0.0682 |
| AACGTTGG | 0.102 |
| CACGCTCA | 0.0193 |
| ATGTGCGA | -0.134 |
| CGTGCGCC | 0.0601 |
| ATGGCGGA | -0.073 |
| ATTGGTCC | 0.0738 |
| CACCAAGA | 0.0521 |
| GCGGATAC | 0.0188 |
| CTCCACAA | 0.0525 |
| CCGAACGG | -0.0849 |
| CTAAAGGA | 0.0541 |
| GGGTAGGA | 0.0231 |
| ATTTTTTG | 0.274 |
| GCCCAAAA | -0.0106 |
| AGTGGCAA | 0.0126 |
| ATAAGTCG | -0.0957 |
| AACCCTCC | -0.233 |
| AAACGTTG | -0.111 |
| CCCGGGTA | -0.0804 |
| AGCGTATG | -0.00622 |
| GACTCCTA | -0.079 |
| AGCATCGC | -0.108 |
| CTTAGAAG | -0.0147 |
| AACGACTT | -0.174 |

| Sequence | PBM E-score |
| --- | --- |
| CATTCTAC | -0.00379 |
| CAGTCATG | -0.144 |
| CAATACTA | 0.143 |
| CGGCTTAA | 0.122 |
| ACCGTGCG | -0.0796 |
| AACATACA | 0.179 |
| AGCAATAG | 0.0737 |
| GTTCCTCA | 0.0553 |
| AGAGGCTA | -0.165 |
| GTAGGCAA | -0.0668 |
| ACGTCGTG | 0.00905 |
| GATCTACC | 0.00163 |
| CCCCACAG | -0.282 |
| TATCCACA | 0.126 |
| CTATGGAC | -0.0707 |
| ACGTCTTG | 0.0663 |
| ATTGCTGG | -0.156 |
| AGTTTCCA | 0.0916 |
| GATTTATA | 0.232 |
| CGGGCTGC | -0.248 |
| CTGGCTAC | -0.327 |
| ATGTGTCA | 0.119 |
| ACAATCCT | 0.212 |
| CACATATG | -0.058 |
| AACCCTGC | -0.253 |

| Sequence | PBM E-score |
| --- | --- |
| CGTAGCTA | -0.181 |
| AACTCTGG | -0.0682 |
| ACCCGCCC | -0.187 |
| GTACCTAA | -0.0687 |
| AATAATCC | 0.439 |
| GAGTATGA | 0.0866 |
| ACTATTGA | 0.243 |
| TCCGATAA | 0.0588 |
| AGTGGATA | 0.2 |
| GACGGATA | 0.0415 |
| ATCGCTTA | -0.117 |
| TGCACTAA | 0.236 |
| CGGGGGAG | -0.329 |
| AGCACATC | 0.0551 |
| AGATTCGG | 0.0497 |
| CCCCTACG | -0.298 |
| CGCACTAC | -0.202 |
| CCAGCTTC | 0.0144 |
| CAAGGATA | 0.112 |
| ACCACTTG | 0.0378 |
| CACGGTAG | -0.00774 |
| GTCGTTAA | 0.0872 |

— the supplement of paper PMC3334620
